# Laboratory results published in the supplement of paper PMC3334620.
# Whole data set: some 33,000 sequences, median “E-score (-0.5 to 0.5)” near -0.016, cut for the highest 2% near 0.32. The list shows a part of the results.
# Target: T1, Stp1 (UniProt B3LFK1)
# T1 sequence: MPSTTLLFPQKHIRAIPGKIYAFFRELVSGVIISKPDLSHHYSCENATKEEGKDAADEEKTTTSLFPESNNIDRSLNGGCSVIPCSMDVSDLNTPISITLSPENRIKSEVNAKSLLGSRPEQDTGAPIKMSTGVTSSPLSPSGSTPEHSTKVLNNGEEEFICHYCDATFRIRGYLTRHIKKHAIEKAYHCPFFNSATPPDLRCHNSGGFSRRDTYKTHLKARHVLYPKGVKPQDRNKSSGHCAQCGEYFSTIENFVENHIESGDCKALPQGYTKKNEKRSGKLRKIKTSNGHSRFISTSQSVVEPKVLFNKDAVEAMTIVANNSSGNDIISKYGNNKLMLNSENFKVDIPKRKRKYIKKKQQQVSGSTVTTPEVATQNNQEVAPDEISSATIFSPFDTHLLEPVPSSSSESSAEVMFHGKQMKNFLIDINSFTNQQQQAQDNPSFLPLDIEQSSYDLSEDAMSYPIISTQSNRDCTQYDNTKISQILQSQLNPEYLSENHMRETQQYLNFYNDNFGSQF
# Assay: PBM E-score (8-mer binding enrichment) (E-score (-0.5 to 0.5)); higher = stronger / more preferred TF binding; most listed sequences are background and not binding sites
# Settings: protein concentration: 200 nM; construct: GST-full length
# Summary of the method: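 Bound GST-tagged yeast transcription factors, applied at about 100-200 nM to double-stranded universal all-10-mer Agilent arrays, were detected with fluorescent anti-GST. Scans were normalised with masliner. A modified Wilcoxon-Mann-Whitney statistic, the E-score, was assigned to each ungapped eight-base word pooled with its reverse complement by the Universal PBM Analysis Suite.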
row,Sequence,PBM E-score
1,AACCCCTG,-0.38
2,AAGGTCTC,-0.0862
3,AGAATATC,0.0464
4,ACGAACGA,0.0181
5,ACTGCCAA,-0.0965
6,AGTTGATC,-0.0149
7,AGGAGAAT,-0.17
8,AGTTCATG,0.0464
9,CAATCAGC,-0.136
10,AACAGGTT,-0.237
11,ATGACGTC,-0.109
12,AATTGATG,0.229
13,AATTGCAA,0.118
14,CCCAGCGC,-0.0526
15,CATGCGCC,0.298
16,AGCATACA,0.125
17,GTTTCGGA,0.0805
18,GGTAGCAC,-0.208
19,AGTAGCTA,-0.16
20,CTATCCAG,-0.0455
21,GAATGCGA,0.0234
22,CCTCCCAG,-0.26

row,Sequence,PBM E-score
1,CACAACGC,0.115
2,AAGTAATT,0.076
3,AGGCCGTG,0.307
4,ATTATTTC,0.127
5,GACGGACA,0.08
6,GGGATCAA,-0.182
7,AGCCTTAT,0.0743
8,CGGCCGAA,0.171
9,GAGAGAGC,-0.0408
10,CGGTGGAG,-0.288
11,CTCAAGCC,-0.193
12,ACGACTGA,-0.0264
13,CTATAGTA,0.046
14,AGTAGGCG,0.254
15,CAACTCGA,-0.045
16,TGAAACCA,0.0636
17,TACTGTAA,0.021
18,CGCCATGA,0.0892
19,ATTGTCTC,0.0966
20,GGGACCCA,-0.164
21,ACCCTCAA,-0.276
22,ATATCAGG,0.0288

row,Sequence,PBM E-score
1,AATTTCCG,0.135
2,ATCCTTGA,-0.0743
3,CGAGATGC,-0.0262
4,CACGCGCA,0.0446
5,AATAGCTG,-0.0978
6,CCTCCGCC,-0.167
7,GGTGGGAA,-0.106
8,ATTTCAAA,0.134
9,AAGTGTAG,-0.00307
10,CGGTCCGA,-0.132
11,ACTCTTAC,-0.0417
12,ACTAGGAG,-0.202
13,AGAAGCGC,0.189
14,AATTGAAG,0.0889
15,TAGAAAGA,-0.0995
16,AATAGGAG,-0.0266
17,GACGCAGC,-0.0122
18,ATCTTTCA,-0.00864
19,AGTCTTGC,0.0474
20,AGTCCAAC,-0.192
21,GGGGTTCA,-0.288
22,AGATTTGA,0.0294

row,Sequence,PBM E-score
1,GCGCCCTA,0.342
2,AATAAGTA,0.0273
3,CCGGTCGC,0.0593
4,CCTGAAAA,-0.0483
5,ATAGTGAT,-0.0735
6,GCCCAGAC,-0.352
7,ACAAGCAC,0.0508
8,GTGTACGA,0.204
9,AAAAAGTG,0.204
10,CTGGTTCA,-0.185
11,CATACCCA,0.0235
12,AGGGGACG,-0.3
13,AAGCCCTT,-0.154
14,GCCGTGGA,0.402
15,CATTTATA,0.0707
16,CGACACTA,-0.175
17,AGAACAAC,-0.0648
18,TACCGGCA,-0.0665
19,CACCGGTC,-0.342
20,AGGGTTGA,-0.321
